Screen size: about 310,000 compounds; about 14,000 (4.5%) showed an effect of 50% or more. The effect is printed as a negative number. The list shows a part of the results.
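Note: peak tail current of the secondary pulse compared with the same well before compound.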

Chain of human ether-à-go-go-related gene (hERG) potassium channel (Q12809 whole entry, looked up): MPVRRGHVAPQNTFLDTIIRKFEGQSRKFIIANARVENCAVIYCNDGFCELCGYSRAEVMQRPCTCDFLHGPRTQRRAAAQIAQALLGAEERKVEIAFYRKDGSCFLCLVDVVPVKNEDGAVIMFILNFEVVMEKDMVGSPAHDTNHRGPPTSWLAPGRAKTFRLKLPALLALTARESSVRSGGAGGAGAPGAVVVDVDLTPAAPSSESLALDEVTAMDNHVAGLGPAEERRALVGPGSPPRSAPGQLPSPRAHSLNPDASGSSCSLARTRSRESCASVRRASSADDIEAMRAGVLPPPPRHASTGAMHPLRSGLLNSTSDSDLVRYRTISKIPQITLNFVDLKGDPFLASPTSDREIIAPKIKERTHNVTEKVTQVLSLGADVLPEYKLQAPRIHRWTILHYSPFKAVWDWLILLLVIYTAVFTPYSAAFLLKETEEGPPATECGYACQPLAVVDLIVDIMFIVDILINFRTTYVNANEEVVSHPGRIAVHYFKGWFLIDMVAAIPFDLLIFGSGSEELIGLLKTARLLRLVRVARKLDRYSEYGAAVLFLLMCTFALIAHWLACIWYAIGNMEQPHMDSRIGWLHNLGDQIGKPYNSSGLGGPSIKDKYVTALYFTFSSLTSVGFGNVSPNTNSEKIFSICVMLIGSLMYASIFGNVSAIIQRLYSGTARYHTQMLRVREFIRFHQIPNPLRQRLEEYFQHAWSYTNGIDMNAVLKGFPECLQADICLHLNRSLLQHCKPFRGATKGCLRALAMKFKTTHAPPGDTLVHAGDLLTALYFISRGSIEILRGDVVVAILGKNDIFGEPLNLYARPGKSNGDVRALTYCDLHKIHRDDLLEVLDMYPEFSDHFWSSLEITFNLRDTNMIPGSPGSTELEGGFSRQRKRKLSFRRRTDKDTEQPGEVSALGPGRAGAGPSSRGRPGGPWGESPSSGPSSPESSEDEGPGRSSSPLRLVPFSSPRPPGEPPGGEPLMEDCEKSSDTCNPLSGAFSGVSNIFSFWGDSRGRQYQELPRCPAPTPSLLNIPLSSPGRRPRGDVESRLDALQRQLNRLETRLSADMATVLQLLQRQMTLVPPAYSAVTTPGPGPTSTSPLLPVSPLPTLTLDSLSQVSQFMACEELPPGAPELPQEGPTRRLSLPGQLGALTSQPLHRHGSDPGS

This test concerns the target human ether-à-go-go-related gene (hERG) potassium channel (human, UniProt Q12809). Kind of test: primary screen, population patch clamp on CHO cells stably expressing hERG.
As for `COc1ccc(CN2CCNC(=O)C2CC(=O)N(C)CCc2cnn(C)c2)c(F)c1` (stereo not shown), the “hERG current change (%, negative = inhibition) at 10uM” value is reported as -12.1%. With `CC(=O)NC(=S)Nc1ccccc1N1CCN(C(=O)c2ccccc2)CC1`, the “hERG current change (%, negative = inhibition) at 10uM” value is recorded as -8.1%. Turning to `CC1=CC(C)(C)N(S(=O)(=O)c2ccc(C)cc2)c2ccccc21`, the “hERG current change (%, negative = inhibition) at 10uM” value is -9.72%. `COc1cc(C2C(C#N)=C(N)Oc3n[nH]c(-c4cccnc4)c32)ccc1OCC(N)=O` (stereo not shown): the “hERG current change (%, negative = inhibition) at 10uM” value was -3.5%. On to `Cc1c(C(=O)N(Cc2ccccc2)C2CCS(=O)(=O)C2)oc2ccccc12` (stereo not shown), for which the “hERG current change (%, negative = inhibition) at 10uM” value was -38.5%.

`CC(=O)NCCn1c(SCc2cccc([N+](=O)[O-])c2)nc2ccccc2c1=O`: the “hERG current change (%, negative = inhibition) at 10uM” value is given as 1.95%.

Take `NC1=NC2(CCC(c3ccccc3)CC2)n2c(nc3ccccc32)N1` (stereo not shown): the “hERG current change (%, negative = inhibition) at 10uM” value is on record as -40.8%.

`Cn1ncc(Cl)c1C(=O)Nc1ccncc1`: the “hERG current change (%, negative = inhibition) at 10uM” value was 8.99%. In the case of `CC(=O)Nc1ccc(NC(=O)CSC2=NS(=O)(=O)c3cc(Cl)ccc3N2)cc1`, the “hERG current change (%, negative = inhibition) at 10uM” value was determined as 6.45%. Then `CCOC(=O)C(=O)Nc1ccc(OC)c(Cl)c1`, with 6.78%; and `Cn1cc(S(=O)(=O)c2ccccc2)c(=O)c2cc(F)c(N3CCOCC3)cc21`, with 7.18%. Consider `Cc1onc(-c2ccccc2)c1C(=O)N/N=C/c1ccc([N+](=O)[O-])s1`, for which the “hERG current change (%, negative = inhibition) at 10uM” value is listed as -4.85%. As for `CCCn1c(C)cc(-c2csc(N)n2)c1C.Cl`, the “hERG current change (%, negative = inhibition) at 10uM” value was 12.7%.

Consider `Cc1c(CNC(=O)c2nn3c(c2Cl)NC(c2ccccc2)CC3C(F)(F)F)cnn1C` (stereo not shown), for which the “hERG current change (%, negative = inhibition) at 10uM” value is -4.42%.

As for `COc1cccc(CNc2ccc(F)c(Cl)c2)c1`, the “hERG current change (%, negative = inhibition) at 10uM” value amounted to 1.33%. In the case of `CC(=O)C1CCC2C3CCC4=CC(=O)CC[C@]4(C)[C@@]3(F)C(O)C[C@]12C` (stereo partly shown), the “hERG current change (%, negative = inhibition) at 10uM” value came out at 10.2%. Then `Cc1c(Cl)cccc1NC(=S)N1CCN(C(=O)c2ccco2)CC1`, with -1.17%; and `CCOc1cc(/C=C/c2ccc3cccc([N+](=O)[O-])c3n2)cc(Cl)c1O`, with 14.6%.

Consider `CCCCCCCCc1nnc(N)s1`, for which the “hERG current change (%, negative = inhibition) at 10uM” value was -16.2%.

For the compound `COC(=O)C1(CC2CC(c3cccc(Br)c3)=NO2)CCN(C(=O)OC(C)(C)C)CC1` (stereo not shown), the “hERG current change (%, negative = inhibition) at 10uM” value is reported as -14.5%. Then `CC(=O)N(CCCCl)C(C#N)c1ccccc1` (stereo not shown), with 33.8%. Take `Cc1ccc(C)c(Cc2c(C)nc(C)[nH]c2=O)c1`: the “hERG current change (%, negative = inhibition) at 10uM” value was determined as 12.5%.

Regarding `O=C(Nc1cc(Cl)ccc1Cl)c1ccc(-c2ccccc2)cc1`, the “hERG current change (%, negative = inhibition) at 10uM” value is reported as -2.52%. Then `NS(=O)(=O)c1cccnc1Nc1cccc(C(F)(F)F)c1`, with -9.51%.

As for `CCCOc1ccc(C(=O)CCCC(=O)c2ccc(OCCC)cc2)cc1`, the “hERG current change (%, negative = inhibition) at 10uM” value was 22%. Consider `COc1ccc(N2C(=O)/C(=C/c3ccc([N+](=O)[O-])cc3)N=C2C)cc1`, for which the “hERG current change (%, negative = inhibition) at 10uM” value stood at 14%. With `COc1ccc(Cc2nc3ccc(C(=O)NCC(C)(C)OC)cc3o2)cc1` the figure was 20.3%; with `O=S(=O)(NC1CCCCCC1)c1cccc2cccnc12`, 5.29%; with `Cn1nnnc1SCC(=O)NCc1ccccc1`, -5.7%. Take `COCCN(Cc1cc2cc(C)ccc2n2nnnc12)C(=S)Nc1ccccc1C`: the “hERG current change (%, negative = inhibition) at 10uM” value is on record as 13.4%. In the case of `Brc1ccc(/C=C/C=N/Nc2nc3ccccc3s2)cc1`, the “hERG current change (%, negative = inhibition) at 10uM” value was -0.665%. As to `CC(C)C1Oc2ccccc2N(CC(=O)N(Cc2ccncc2)Cc2ccco2)C1=O` (stereo not shown), the “hERG current change (%, negative = inhibition) at 10uM” value is given as -46.2%. Turning to `O=C(O)COc1ccccc1/C=N/Nc1ccc(S(=O)(=O)N2CCOCC2)cc1[N+](=O)[O-]`, the “hERG current change (%, negative = inhibition) at 10uM” value is recorded as 11.8%.

Take `CC(=O)c1cccc(OCc2cc(C(=O)N(C)CCc3ccccn3)no2)c1`: the “hERG current change (%, negative = inhibition) at 10uM” value is on record as -13.6%. `CCC[n+]1c2ccccc2cc2ccccc21.[I-]`: the “hERG current change (%, negative = inhibition) at 10uM” value worked out at 23.7%. In the case of `Cc1ccc(C(=O)N2CCC(C(=O)Nc3cccc([N+](=O)[O-])c3)CC2)cc1`, the “hERG current change (%, negative = inhibition) at 10uM” value is listed as -80.1%.

In the case of `Cc1cccc(COc2ncnc3nc[nH]c23)c1`, the “hERG current change (%, negative = inhibition) at 10uM” value is -6.73%.

For `Cc1cc2cc(CNC(=O)c3ccc(S(=O)(=O)N4CCCCC4)cc3)ccc2n1C`, the “hERG current change (%, negative = inhibition) at 10uM” value is listed as 10.9%. Regarding `CCCCOC(=O)CSC1=C(C#N)C(c2cccnc2)C(C(=O)OCC)=C(c2ccccc2)N1` (stereo not shown), the “hERG current change (%, negative = inhibition) at 10uM” value was -42.4%.

For the compound `O=C(CNC(=O)c1ccc(F)cc1)N/N=C/c1cccnc1`, the “hERG current change (%, negative = inhibition) at 10uM” value is recorded as 18.2%. `CCN(CC)S(=O)(=O)c1ccc(N2CCOCC2)c(NC(=O)c2cccc(C#N)c2)c1`: the “hERG current change (%, negative = inhibition) at 10uM” value is on record as -38.3%. On to `COC(=O)C1=C(c2c(C)noc2C)C[C@@H]2CC[C@H]1N2C(=O)NC1CCCCC1`, for which the “hERG current change (%, negative = inhibition) at 10uM” value was 9.72%. As for `CCc1ccc(OCC(=O)OC(C)C(=O)NC2CC2)cc1` (stereo not shown), the “hERG current change (%, negative = inhibition) at 10uM” value amounted to 7.29%. Then `CCOC(=O)c1cc(CNC(=O)c2c(C)oc3c2CCCC3)c(C)o1`, with -2.05%. As for `COc1cccc(NC(=S)N2c3ccccc3CC2C)c1` (stereo not shown), the “hERG current change (%, negative = inhibition) at 10uM” value is recorded as -5.33%. For the compound `Cc1nn(CC(=O)NCc2ccccn2)c(C)c1[N+](=O)[O-]`, the “hERG current change (%, negative = inhibition) at 10uM” value is reported as -10.9%. Regarding `COc1ccc(/C=C/C(=O)NCC(=O)N/N=C(/CCC(=O)O)c2ccccc2)cc1`, the “hERG current change (%, negative = inhibition) at 10uM” value is 0.514%. With `O=C(O)CCNC(=O)c1ccc(NC(=O)C(c2ccccc2)c2ccccc2)cc1` the figure was 19.1%; with `COc1ccc(-n2c(CN3CCN(c4ccccc4)CC3)nc3ccc([N+](=O)[O-])cc3c2=O)c(OC)c1`, -10.8%; with `COc1cccc(C(=O)Nc2ccc3nc4n(c(=O)c3c2)CCCC4)c1`, -62.9%. For `COc1ccc(OC)c(-c2csc(N(Cc3ccco3)C(=O)c3ccco3)n2)c1`, the “hERG current change (%, negative = inhibition) at 10uM” value was 7.74%.

Regarding `O=c1[nH][nH]cc1C=NCc1cccc(C(F)(F)F)c1`, the “hERG current change (%, negative = inhibition) at 10uM” value is reported as 7.64%. `COc1ccc(CN2CCN(CCc3ccccc3)C(CCO)C2)c(O)c1` (stereo not shown): the “hERG current change (%, negative = inhibition) at 10uM” value is reported as -71.7%.

Regarding `N#CC(Sc1ccccn1)c1ccc(Cl)cc1` (stereo not shown), the “hERG current change (%, negative = inhibition) at 10uM” value is -18.2%. Then `NC(N)=NS(=O)(=O)c1ccc(NC(=S)NC(=O)c2ccc(Br)cc2)cc1`, with 4.88%; and `O=C(CSc1nc(C2CC2)nc2c1cnn2-c1ccccc1)Nc1c[nH]c(=O)[nH]c1=O`, with 13.5%. On to `O=C1Nc2cc(C(=O)N3CCOCC3)ccc2S/C1=C\c1ccccc1`, for which the “hERG current change (%, negative = inhibition) at 10uM” value was determined as 6.71%. Then `CCOC(=O)/C=c1\s/c(=C\c2ccc3cc(OC)ccc3c2)c(=O)n1CC(=O)NCC1CCCO1` (stereo not shown), with 12.9%; and `Cc1cc(C)nc(N2CCC(C(=O)Nc3ccc4c(c3)CCC4)CC2)n1`, with 17.3%. Take `COc1ccccc1NC(=O)COc1ccc(C(=O)NC2CCCc3ccccc32)cc1OC` (stereo not shown): the “hERG current change (%, negative = inhibition) at 10uM” value is reported as 18.7%. On to `COc1ccc(C(=O)N(C)C2CCCN(Cc3ccccc3F)C2)cc1OC` (stereo not shown), for which the “hERG current change (%, negative = inhibition) at 10uM” value is on record as 11.1%. `CCCCC1CCCOC(C(=O)NCCNCCO)(C(F)(F)F)C1` (stereo not shown): the “hERG current change (%, negative = inhibition) at 10uM” value is reported as 6.03%. Then `O=C1C2CC=C(Cl)CC2C(=O)N1CCC[n+]1ccccc1.[Br-]` (stereo not shown), with -7.87%; and `NNC(=O)CC1NCCN(Cc2ccccc2)C1=O` (stereo not shown), with 29.7%.

As to `CCCC(=NCc1ccccc1)C1=C(O)C(C(=O)OC)C(C)(C)CC1=O` (stereo not shown), the “hERG current change (%, negative = inhibition) at 10uM” value is listed as -6.07%.

For the compound `CCOc1cc(CNCCc2ccccc2)ccc1OCC(=O)NC(C)(C)C.Cl`, the “hERG current change (%, negative = inhibition) at 10uM” value is given as -12.6%. Regarding `O=C1c2cccnc2C(O)N1Cc1ccco1` (stereo not shown), the “hERG current change (%, negative = inhibition) at 10uM” value is given as -1.24%. As for `CC(=O)Nc1cccc(C(=O)/C=C/c2ccc(Br)cc2)c1`, the “hERG current change (%, negative = inhibition) at 10uM” value is on record as -11.9%.

On to `O=C(Nc1ccccc1-c1ccccc1)NC1CC2CCCC(C1)N2CCc1ccccc1` (stereo not shown), for which the “hERG current change (%, negative = inhibition) at 10uM” value is given as -53.3%.

On to `COC(=O)c1cn(NC(=O)C2CCC(C(C)(C)C)CC2)c(=O)c2ccccc12` (stereo not shown), for which the “hERG current change (%, negative = inhibition) at 10uM” value is on record as 13.7%. As for `CCN(CC)C(=O)c1nc[nH]c1C(=O)N(CC)CC`, the “hERG current change (%, negative = inhibition) at 10uM” value is 14.7%. With `COc1ccc(-n2c(O)c(C=NCc3ccc4c(c3)OCO4)c(=O)[nH]c2=O)cc1` the figure was 1.59%; with `NC(=O)c1ccc(NC(=O)COC(=O)C(Cc2ccccc2)NC(=O)c2ccccc2)cc1` (stereo not shown), -53%. For `C=CCn1nc(-c2ccccc2)c2c(C)onc2c1=O`, the “hERG current change (%, negative = inhibition) at 10uM” value is -11.7%. Then `CCNC(=S)NNC(=O)c1ccccn1`, with 2.8%; and `Cc1nnc(SCC(=O)Nc2cc(C(N)=O)cc(C(N)=O)c2)n1-c1ccccc1`, with 17.2%; and `Cc1cccc(C)c1NC(=S)N(CCc1ccncc1)C(C)C`, with -1.45%. Then `CCOc1ccc(OCc2ccc(C(=O)Nc3cccc(C)n3)o2)cc1`, with -21.8%. Take `CN(C)CCN(Cc1ccccc1)S(=O)(=O)c1csc(C(N)=O)c1`: the “hERG current change (%, negative = inhibition) at 10uM” value was -5.5%. On to `CCOC(=O)N/N=C/c1cccnc1`, for which the “hERG current change (%, negative = inhibition) at 10uM” value is 41.3%. Regarding `COc1ccc([N+](=O)[O-])cc1/C=N/NC(=O)c1nonc1N`, the “hERG current change (%, negative = inhibition) at 10uM” value was found to be 16.2%. For the compound `CCN(CC)CCCN1C(=O)c2oc3ccccc3c(=O)c2C1c1cc(OC)ccc1OC` (stereo not shown), the “hERG current change (%, negative = inhibition) at 10uM” value is listed as -13%.

Regarding `O=c1[nH]c2ccccc2nc1C(F)(F)F`, the “hERG current change (%, negative = inhibition) at 10uM” value amounted to 13.2%. As for `COc1ccc(CNC(=O)CCCn2nc(C)c([N+](=O)[O-])c2C)cc1`, the “hERG current change (%, negative = inhibition) at 10uM” value is recorded as -12.2%. With `CCOC(=O)c1c(C)n(C)c2ccc(OCC(O)CN3CCCCCC3)cc12.Cl` (stereo not shown) the figure was -18.4%; with `Cc1ccc(NC(=O)Cn2cnc3sc(C(=O)NCc4ccco4)c(C)c3c2=O)cc1Cl`, -10.9%. For `CCOC(=O)c1c(C)[nH]c(N=Nc2ccc(C)cc2)c1C`, the “hERG current change (%, negative = inhibition) at 10uM” value was 13.8%. Consider `N#CC(C#N)=C(N)CSc1cccc[n+]1[O-]`, for which the “hERG current change (%, negative = inhibition) at 10uM” value came to 26.6%.
